Source: the supplement of paper PMC11369174, “Proteome-scale characterisation of motif-based interactome rewiring by disease mutations” (Molecular Systems Biology, 2024)
The other results are listed elsewhere or left out. Values come from read counts of a selection and are noisy.

B1: BRCA2 286-301 mut P51587.T298_V300delinsILR (peptide)
chain: SMPNVLEDEVYEILRD
B2: CPS1 1150-1165 mut P31327.A1155V (peptide)
chain: KFLEEVTRVSQEHPVV
B3: FBXO7 8-23 wt (peptide)
chain: LKRTWPLEVPETEPTL
B4: SLX4 979-994 mut Q8IY92.G992E (peptide)
chain: DAGDYEQLFSSTQEEI
B5: DKC1 40-55 mut O60832.S50Y (peptide)
chain: PESKVAKLDTYQWPLL
B6: SPTAN1 2283-2298 mut Q13813.D2295V (peptide)
chain: TEHSTVGLAQQWVQLD
B7: BRCA2 294-309 mut P51587.T298_V300delinsILR (peptide)
chain: EVYEILRDTSEEDSFS
B8: GALT 49-64 wt (peptide)
chain: MKRPWQGQVEPQLLKT
B9: MARVELD2 488-503 mut Q8N4S9.R500G (peptide)
chain: AVMSRLPHHSESGQEH
B10: FAT1 4374-4389 mut Q14517.S4375L (peptide)
chain: ELADDNGYHWDTSDWM
B11: ZNF469 3007-3022 wt (peptide)
chain: NTHLLPLRATDFEVLS
B12: MECP2 1-16 mut P51608.G7E (peptide)
chain: MVAGMLELREEKSEDQ
B13: LMNA 44-59 mut P02545.E53G (peptide)
chain: VYIDRVRSLGTENAGL
B14: RHBDF2 172-187 wt (peptide)
chain: FQGTESPKPAKMPKIV
B15: CENPF 1382-1397 wt (peptide)
chain: APLDESNSYEHLTLSD
B16: ZNF469 3011-3026 mut Q96JG9.R3014H (peptide)
chain: LPLHATDFEVLSTKFE
B17: NDUFB11 121-136 wt (peptide)
chain: EAERLVKYREANGLPI
B18: GALT 49-64 mut P07902.G55C (peptide)
chain: MKRPWQAQVEPQLLKT
B19: CREBBP 4-19 wt (peptide)
chain: NLLDGPPNPKRAKLSS
B20: PKD1 8-23 mut P98161.L13Q (peptide)
chain: RLALAQGLGLWLGALA
B21: MYBPC3 195-210 mut Q14896.K202Q (peptide)
chain: KWVDLSSQVGQHLQLH
B22: NRL 60-75 mut P54845.P67S (peptide)
chain: GATEGTRSGLEELYWL
B23: TYK2 626-641 wt (peptide)
chain: PLVPGRDRGQELRVVL
B24: SLC29A3 437-452 mut Q9BZD2.T449R (peptide)
chain: GPKIVPRELAEARGVV
B25: ABCC6 1223-1238 mut O95255.R1235W (peptide)
chain: WTDLENSIVSVEWMQD
B26: FBXO7 8-23 mut Q9Y3I1.T22M (peptide)
chain: LKRTWPLEVPETEPML
B27: SQSTM1 258-273 wt (peptide)
chain: DVEHGGKRSRLTPVSP
B28: DKC1 40-55 mut O60832.T49M (peptide)
chain: PESKVAKLDMSQWPLL
B29: CENPF 1390-1405 wt (peptide)
chain: YEHLTLSDKEVQMHFA
B30: CDC45 152-167 wt (peptide)
chain: EPSEKRTRLEEEIVEQ
B31: RYR1 2026-2041 mut P21817.H2035L (peptide)
chain: EIRQDLLDFLQDLLAH
B32: MYH7B 1037-1052 wt (peptide)
chain: SVARLTKEKKALQEAH
B33: SQSTM1 254-269 mut Q13501.D258N (peptide)
chain: EVDINVEHGGKRSRLT
B34: CEP120 704-719 wt (peptide)
chain: EYTILEGKLQKTLIDL
B35: POLG 614-629 mut P54098.R627W (peptide)
chain: YSERHGWGYLVPGWRD
B36: SQSTM1 338-353 wt (peptide)
chain: WTHLSSKEVDPSTGEL
B37: ABCB4 1087-1102 wt (peptide)
chain: DPLAGTVFVDFGFQLL
B38: CHD2 1351-1366 wt (peptide)
chain: KVPRLKEEHGIELSSP
B39: SQSTM1 326-341 wt (peptide)
chain: MESDNASGGDDDWTHL
B40: ACVRL1 173-188 mut P37023.D179A (peptide)
chain: MLGDLLASDATTGSGS
B41: FUZ 403-418 wt (peptide)
chain: LRSLATHTLHALTPLL
B42: NBN 475-490 mut O60934.L489V (peptide)
chain: MSSAKSARIETSASVL
B43: RHBDF2 176-191 mut Q6PJF5.P189L (peptide)
chain: ESPKPAKMPKIVDLLA
B44: PTCH1 1106-1121 mut Q13635.R1114W (peptide)
chain: TAIGDKNRWAVLALEH
B45: RECQL4 260-275 wt (peptide)
chain: EKRRWNEEPWESPAQV
B46: SLX4 975-990 wt (peptide)
chain: PHSDDAGDYEQLFSST
B47: CDH1 746-761 mut P12830.R749W (peptide)
chain: DDTWDNVYYYDEEGGG
B48: SLX4 975-990 mut Q8IY92.P975L (peptide)
chain: LHSDDAGDYEQLFSST
B49: BRCA2 290-305 mut P51587.T298_V300delinsILR (peptide)
chain: VLEDEVYEILRDTSEE
B50: ABCC6 1220-1235 mut O95255.R1221C (peptide)
chain: VANWTDLENSIVSVER
B51: DKC1 40-55 wt (peptide)
chain: PESKVAKLDTSQWPLL
B52: SLX4 979-994 wt (peptide)
chain: DAGDYEQLFSSTQGEI
B53: BRCA1 363-378 wt (peptide)
chain: NPRDTEDVPWITLNSS
B54: MED13L 2014-2029 wt (peptide)
chain: NEDGFSPNNDDMFVDL
B55: ABRAXAS1 349-364 wt (peptide)
chain: LDLDDRWQFKRSRLLD
B56: BRCA2 1103-1118 mut P51587.S1115F (peptide)
chain: LTPSQKAEITELFTIL
B57: DKC1 40-55 mut O60832.L54V (peptide)
chain: PESKVAKLDTSQWPVL

target: MAP1LC3B_ATG8__Q9GZQ8_2_119; test: mean normalised NGS count of phage-displayed peptide after selection on bait (% of reads); baits are purified protein domains named by gene / domain / UniProt id / residues; peptides come from disordered regions of human proteins; higher = stronger enrichment / binding; details: replicate selections in which the peptide was seen: 6

| Binder | mean normalised NGS count |
| --- | --- |
| B1 | 2.1 |
| B7 | 0.0836 |
| B15 | 0.743 |
| B25 | 2.02 |
| B46 | 0.0782 |
| B48 | 0.257 |
| B50 | 0.413 |
| B52 | 0.151 |

target: KPNA4_Arm__O00629_68_487; test: as above; details: replicate selections in which the peptide was seen: 2
Sequence (chain, as listed by the source): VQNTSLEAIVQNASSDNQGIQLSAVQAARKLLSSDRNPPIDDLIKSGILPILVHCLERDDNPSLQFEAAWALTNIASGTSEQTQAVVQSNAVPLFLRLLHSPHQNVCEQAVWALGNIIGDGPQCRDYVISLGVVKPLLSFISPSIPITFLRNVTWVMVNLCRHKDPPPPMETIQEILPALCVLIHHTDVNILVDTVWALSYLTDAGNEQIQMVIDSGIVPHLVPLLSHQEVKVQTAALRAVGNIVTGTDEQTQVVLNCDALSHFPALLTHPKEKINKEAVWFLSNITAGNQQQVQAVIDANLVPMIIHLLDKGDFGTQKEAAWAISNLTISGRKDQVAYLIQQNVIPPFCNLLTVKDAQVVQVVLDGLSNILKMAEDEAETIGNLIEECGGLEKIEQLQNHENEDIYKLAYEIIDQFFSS

| Binder | mean normalised NGS count |
| --- | --- |
| B2 | 0.215 |
| B5 | 0.0607 |
| B9 | 4.07 |
| B12 | 0.0863 |
| B20 | 0.815 |
| B22 | 0.271 |
| B40 | 0.884 |

same assay, conditions: replicate selections in which the peptide was seen: 3

| Binder | mean normalised NGS count |
| --- | --- |
| B3 | 0.0689 |

target: MAP1LC3B_ATG8__Q9GZQ8_2_119; test: as above; details: replicate selections in which the peptide was seen: 5

| Binder | mean normalised NGS count |
| --- | --- |
| B4 | 1.5 |
| B10 | 0.0754 |
| B11 | 0.0228 |
| B16 | 0.0702 |
| B44 | 0.0295 |
| B53 | 0.0247 |
| B56 | 0.614 |

same assay, conditions: replicate selections in which the peptide was seen: 2

| Binder | mean normalised NGS count |
| --- | --- |
| B6 | 0.0056 |
| B29 | 0.00502 |
| B34 | 0.0539 |
| B41 | 1.18 |
| B54 | 0.0309 |

target: KPNA4_Arm__O00629_68_487; test: as above; details: replicate selections in which the peptide was seen: 6

| Binder | mean normalised NGS count |
| --- | --- |
| B8 | 8.91 |
| B18 | 4.47 |
| B19 | 0.732 |
| B27 | 2.02 |
| B45 | 2.53 |
| B55 | 2.07 |
| B57 | 8.62 |

same assay, conditions: replicate selections in which the peptide was seen: 5

| Binder | mean normalised NGS count |
| --- | --- |
| B13 | 0.211 |
| B17 | 4.05 |
| B26 | 0.216 |
| B28 | 0.375 |
| B33 | 0.263 |
| B42 | 0.116 |

same assay, conditions: replicate selections in which the peptide was seen: 4

| Binder | mean normalised NGS count |
| --- | --- |
| B14 | 0.0192 |
| B32 | 0.714 |
| B38 | 0.154 |
| B43 | 1.05 |
| B51 | 6.7 |

target: MAP1LC3B_ATG8__Q9GZQ8_2_119; test: as above; details: replicate selections in which the peptide was seen: 4

| Binder | mean normalised NGS count |
| --- | --- |
| B21 | 0.047 |
| B35 | 0.058 |
| B47 | 0.0142 |

target: Intersectin-1_SH3_5_Q15811_1155_1214; test: as above; details: replicate selections in which the peptide was seen: 5

| Binder | mean normalised NGS count |
| --- | --- |
| B23 | 1.13 |

same assay, conditions: replicate selections in which the peptide was seen: 3

| Binder | mean normalised NGS count |
| --- | --- |
| B24 | 0.215 |

target: KPNA4_Arm__O00629_68_487; test: as above; details: replicate selections in which the peptide was seen: 7

| Binder | mean normalised NGS count |
| --- | --- |
| B30 | 8.12 |

target: KPNB1_Heat_1_Q14974_127_876; test: as above; details: replicate selections in which the peptide was seen: 2
Sequence (chain, as listed by the source): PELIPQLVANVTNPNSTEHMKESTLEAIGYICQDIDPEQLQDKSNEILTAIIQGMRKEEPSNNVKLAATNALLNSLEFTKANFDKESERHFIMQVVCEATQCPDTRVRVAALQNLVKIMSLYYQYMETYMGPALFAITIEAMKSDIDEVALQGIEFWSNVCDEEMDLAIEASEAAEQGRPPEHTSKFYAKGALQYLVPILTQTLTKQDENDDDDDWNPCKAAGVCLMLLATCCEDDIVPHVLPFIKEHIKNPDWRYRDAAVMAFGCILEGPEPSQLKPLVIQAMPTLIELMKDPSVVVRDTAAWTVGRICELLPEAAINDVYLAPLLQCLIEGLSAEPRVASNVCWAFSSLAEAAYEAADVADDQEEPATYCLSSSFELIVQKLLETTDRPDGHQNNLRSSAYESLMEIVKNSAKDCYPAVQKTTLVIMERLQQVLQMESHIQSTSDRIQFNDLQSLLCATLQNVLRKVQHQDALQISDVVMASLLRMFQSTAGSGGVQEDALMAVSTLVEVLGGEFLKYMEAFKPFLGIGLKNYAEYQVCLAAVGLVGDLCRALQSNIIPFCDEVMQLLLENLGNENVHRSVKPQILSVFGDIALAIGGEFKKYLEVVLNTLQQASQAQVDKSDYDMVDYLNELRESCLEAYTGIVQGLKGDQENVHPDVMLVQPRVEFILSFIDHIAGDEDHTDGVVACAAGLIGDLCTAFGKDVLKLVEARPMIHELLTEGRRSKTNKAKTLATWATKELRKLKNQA

| Binder | mean normalised NGS count |
| --- | --- |
| B31 | 53.4 |

target: MAP1LC3B_ATG8__Q9GZQ8_2_119; test: as above; details: replicate selections in which the peptide was seen: 3

| Binder | mean normalised NGS count |
| --- | --- |
| B36 | 0.0724 |
| B37 | 0.0146 |
| B39 | 0.0111 |
| B49 | 0.0111 |

target: OXSR1___O95747_434_527; test: as above; details: replicate selections in which the peptide was seen: 2
Sequence (chain, as listed by the source): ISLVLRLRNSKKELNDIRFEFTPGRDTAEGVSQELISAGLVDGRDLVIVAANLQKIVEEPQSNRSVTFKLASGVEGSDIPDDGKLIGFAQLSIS

| Binder | mean normalised NGS count |
| --- | --- |
| B40 | 0.721 |
